Data on 83 molecules can be found in ChEMBL document CHEMBL1201862, “PubChem BioAssay data set” (2004).

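Following 48 hours of exposure in 96-well plates, responses at five concentrations were used to interpolate endpoints linearly. GI50 is the concentration that inhibits growth by half.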 Active and inactive are the calls of the source. No stated cut-off is given here; in the data, active = GI50 up to about 1.1 µM and inactive = higher. Where only a bound is given, the exact number is not on record here.

By GI50 is commonly meant the concentration at which growth is held to half of that of the control.

The subject of this assay is NCI-H322M. The assay is described as follows: DTP human tumour cell line panel, 48 h.
With `CN(C)CC1CCC/C(=C\c2ccc(OC(=O)/C=C/c3ccccc3)cc2)C1=O` (stereo not drawn), the GI50 is inactive: 7.23 µM.

On to `Cc1cccc2c1c(=O)c1c(O)cc(O)cc1n2C`, for which the GI50 was inactive: > 100 µM.

Regarding `CCOP(=O)(Nc1ccc2oc(=O)c3ccccc3c2c1)OCC`, the GI50 was inactive: > 100 µM.

For `CCOC(=O)c1ccc(-c2cc(C)no2)[nH]1`, the GI50 is inactive: > 100 µM.

Consider `COc1ccc(-c2[nH]c3ccccc3c2CCNS(=O)(=O)c2ccc(C)cc2)cc1`, for which the GI50 was inactive: > 10 µM.

For the molecule `Cc1nnc2n(c1=O)CCCN2C`, the GI50 was inactive: > 100 µM.

As to `CCOC(=O)CSc1nnc2cc(CN3CCCC3)c(-c3ccc(Cl)cc3)nn12`, the GI50 was inactive: 25.2 µM.

For the molecule `Cc1ccccc1-n1c(=O)nc2n(-c3ccc(C(C)(C)C)cc3)c3ccccc3cc-2c1=O`, the GI50 was inactive: 19.5 µM.

With `O=C1/C(=N\n2c(S)nnc2-c2ccncc2)c2cc(Cl)ccc2N1CN1CCCCC1`, the GI50 was inactive: 81.5 µM.

Turning to `O=C(N/C(=C\NC1=NCCS1)C(=O)N1CSC[C@@H]1C(=O)O)c1ccccc1`, the GI50 was inactive: > 100 µM.

Take `COc1cc(C(=O)OCCn2[nH]c(-c3ccc(Cl)cc3)nc2=S)cc(OC)c1OC`: the GI50 is inactive: > 100 µM.

With `Cc1nc(Nc2ccc(F)cc2)c2sc(=S)n(-c3ccc(F)cc3)c2n1`, the GI50 was inactive: 12.7 µM.

For the molecule `COC(=O)C1CC(C=O)=C(SC)N1` (stereo not drawn), the GI50 was inactive: > 50 µM.

`CCCCN1C(=O)c2c(Br)sc(Br)c2C1=O`: the GI50 is inactive: 38.3 µM.

On to `COc1cc(CCCC(O)COc2cccc3c2C2(O)CCCCCC32)cc(OC)c1` (stereo not drawn), for which the GI50 was inactive: 19.5 µM.

With `O=c1c2cc(Br)cc(Br)c2nc(CCCl)n1CCO`, the GI50 is inactive: 82.2 µM.

As to `CCOC(=O)C(Oc1ccc(OC)c2c1C(=O)CCC2)c1ccccc1` (stereo not drawn), the GI50 was inactive: > 100 µM.

For `C=C(CCOC)CCC1CCCCC(=C)[C@H]1O` (stereo partly drawn), the GI50 is inactive: > 100 µM.

For the molecule `O=c1[nH]c2nc3ccccc3c(=O)n2/c1=C/c1ccc(O)cc1`, the GI50 was inactive: 47.6 µM.

On to `NC(=O)C#CC#CC#CCO`, for which the GI50 is inactive: 10.9 µM.

Consider `Cc1cccc(C[C@@]2(SCc3ccccc3)C(C)(C)[C@@H]3CC[C@@]2(C)C3)n1`, for which the GI50 was inactive: 23.2 µM.

On to `COc1ccc(OC)c2sc(N3C(=O)/C(=C/c4cccc(Oc5ccccc5)c4)N=C3c3ccccc3)nc12`, for which the GI50 was inactive: > 100 µM.

As for `CCOC(=O)NC(C(F)(F)F)(C(F)(F)F)P(=O)(OCC)OCC`, the GI50 is inactive: > 100 µM.

`C=CC(C)(O)CCC1C(=C)C(O)CC2C(C)(C)CCCC12C` (stereo not drawn): the GI50 is inactive: 21.3 µM.

Take `O=C(Cc1ccccc1)NN1C(=O)C(Cl)C1c1ccccc1Cl` (stereo not drawn): the GI50 is inactive: > 100 µM.

Turning to `CN(C)c1ccc(/C=C2\N=C(c3ccc([N+](=O)[O-])cc3)OC2=O)cc1`, the GI50 is inactive: > 100 µM.

Turning to `COc1ccc(COCC[C@H](C)OC2OC(CO[Si](C)(C)C(C)(C)C)C(O)C(O)C2O)cc1` (stereo partly drawn), the GI50 is inactive: > 100 µM.

For the molecule `CCC(=O)NC(Nc1ccc(O)cc1)(C(F)(F)F)C(F)(F)F`, the GI50 is inactive: > 100 µM.

On to `Cn1c(=O)oc2nc(-c3ccccc3)cc(C(F)(F)F)c21`, for which the GI50 was inactive: > 100 µM.

Consider `COC(=O)[C@]12CSCN1C(=O)C(C(C)=O)=NN2C(=O)[C@](OC)(c1ccccc1)C(F)(F)F`, for which the GI50 was inactive: > 100 µM.

As to `CCOC(=O)C1(Cc2ccc3ccccc3c2)CCCCCN1` (stereo not drawn), the GI50 was inactive: 46.7 µM.

As to `COc1ccc2c(c1)CCc1c(C(C)=O)c3ccccc3n1C2`, the GI50 was inactive: 58.3 µM.

On to `CC1OC(OC2C(Oc3cc(O)c4c(c3)O[C@H](c3ccc(O)cc3)CC4=O)OC(CO)C(O)C2O)C(O)C(O)C1O` (stereo partly drawn), for which the GI50 was inactive: > 100 µM.

Regarding `FC(F)(F)c1nc2ccc3[nH]c4c(-c5ccccc5)nccc4c3c2[nH]1`, the GI50 is inactive: > 100 µM.

In the case of `CCOC(=O)/C=C(\C)c1ccc(OC)cc1`, the GI50 was inactive: > 100 µM.

Consider `COc1cccc(OC)c1/C=C1\OC(=O)c2cccc(OC)c21`, for which the GI50 is inactive: 23.2 µM.

With `CC1(C)CCC2(C(=O)OC3OC(CO)C(O)C(O)C3O)CCC3(CO)C(=CCC4C5(C)CC(O)C(O)C(C)(C(=O)OC6OC(CO)C(O)C(O)C6O)C5CCC43C)C2C1` (stereo not drawn), the GI50 was inactive: > 100 µM.

Consider `CCCCc1ccc(Nc2nc(OC)c3ncn(C4CC(O)C(CO)O4)c3n2)cc1` (stereo not drawn), for which the GI50 was inactive: 16.7 µM.

For the molecule `CCN(CC)CCCNc1nncc2cc3c([nH]c4ccccc43)c(C)c12`, the GI50 was inactive: 4.84 µM.

For `COc1cc(C2C3=C(NC(=O)C2C#N)c2ccc4ccccc4c2OCC3)cc(OC)c1OC` (stereo not drawn), the GI50 is inactive: 30 µM.

`CC(C)N1C=[N+](C(C)C)CC1`: the GI50 is inactive: > 100 µM.

Consider `C=CCCCN(C(=O)c1ccccc1)c1ccc(C(=O)OC)o1`, for which the GI50 is inactive: > 100 µM.

With `O=C1C(c2ccccc2)=C(c2ccccc2)C(c2ccc(Cc3ccc(C4=C(c5ccccc5)C(=O)C(c5ccccc5)=C4c4ccccc4)cc3)cc2)=C1c1ccccc1`, the GI50 was inactive: > 100 µM.

`N#CC1=C(N)OC2=C(CSc3ccccc32)C1c1ccc(Br)cc1` (stereo not drawn): the GI50 was inactive: 17.3 µM.

Consider `COc1ccc(OC)c(NS(=O)(=O)c2ccc3nc(C)n(NS(=O)(=O)c4cc(OC)ccc4OC)c(=O)c3c2)c1`, for which the GI50 is inactive: > 100 µM.

As to `Cc1cc(OC(=O)Nc2cccc3ccccc23)c(C(C)C)cc1C(=S)Nc1ccccc1`, the GI50 is inactive: 22.2 µM.

With `COc1ccc(OC)c(C2CCc3cnc4nc(N)nc(N)c4c3C2)c1` (stereo not drawn), the GI50 was inactive: > 100 µM.

In the case of `NC(c1ccccc1)(C(F)(F)F)P1(=O)OC(=O)c2ccccc2O1` (stereo not drawn), the GI50 was inactive: 35.2 µM.

Take `COc1ccc(NC(=O)C2C(=O)N(c3ccc(OC)cc3)C(=O)/C2=N\NC(N)=O)cc1` (stereo not drawn): the GI50 is inactive: 39.6 µM.

For the molecule `CN(C)/C=C/c1ccncc1`, the GI50 is inactive: > 100 µM.

As to `Cc1ccc(S(=O)(=O)c2ccccn2)cc1`, the GI50 was inactive: > 100 µM.

As for `CCOC(=O)CCC(NC(=O)OCc1ccccc1)C(=O)NC(CCC(=O)OCC)C(=O)NNC(=O)OC(C)(C)C` (stereo not drawn), the GI50 is inactive: > 100 µM.

As to `COc1ccc(C2=NNC(=O)OC2c2ccccc2)cc1` (stereo not drawn), the GI50 is inactive: > 100 µM.

`COc1ccc(N2CC(=O)N(C(=O)COc3ccc(OCC(=O)N4C(=O)CN(c5ccc(OC)cc5)C4=S)cc3)C2=S)cc1`: the GI50 is inactive: 16 µM.

Consider `CC1(C)C/C=C\CCC(O)C(O)CCC(C)(C)C1=O` (stereo not drawn), for which the GI50 was inactive: > 100 µM.

With `O=C(OC1CN2CCC1CC2)N(c1ccccc1)c1ccccc1` (stereo not drawn), the GI50 is inactive: > 100 µM.

For the molecule `N=C(N)N/N=C/c1c(-c2ccccc2[N+](=O)[O-])nc2sccn12`, the GI50 is inactive: 45.7 µM.

In the case of `S=C(N/N=C(/c1ccccc1)c1ccccn1)Nc1ccccc1Cl`, the GI50 was active: < 0.01 µM.

With `CC1(C)N=C(c2ccccn2)C(c2ccccn2)=NC1(C)C`, the GI50 is inactive: > 100 µM.

With `Oc1ccc(-c2csc(N/N=C3\NC/C(=C/c4ccc5c(c4)OCO5)S3)n2)cc1O`, the GI50 was inactive: 29.9 µM.

With `CN1CSC(=S)N(c2c3ccccc3nc3ccc(Br)cc23)C1`, the GI50 is inactive: 7.35 µM.

As to `CCc1cc(C(=O)OC)cn1C(=N)c1ccc(Cl)cc1`, the GI50 is inactive: > 100 µM.

With `CC1(C)C2CCC1C(=O)[C@@]1(C=CC(=O)CC1)C2` (stereo partly drawn), the GI50 is inactive: 85.5 µM.

As for `COc1ccccc1N(CN1C(=O)CCC1C(=O)O)C(C)=O` (stereo not drawn), the GI50 was inactive: > 100 µM.

With `CCCCCCCCCCCCCC(=O)OCC1OC(n2cc(F)c(=O)[nH]c2=O)C(NC(=O)OCc2ccccc2)C(OC(=O)CCCCCCCCCCCCC)C1O` (stereo not drawn), the GI50 is inactive: > 100 µM.

For the molecule `CCOc1ccc2c(c1)[n+]([O-])c(C(N)=O)c(N)[n+]2[O-]`, the GI50 was inactive: > 100 µM.

Turning to `COC1=CC2(C=CC1=O)c1cc(OC)c(OC)cc1CCN2C(=O)c1ccccc1` (stereo not drawn), the GI50 was inactive: > 100 µM.

In the case of `CC(C)(C)OC(=O)CC(NC(=O)OC(C)(C)C)C(=O)Oc1ccc([N+](=O)[O-])cc1` (stereo not drawn), the GI50 was inactive: 32.1 µM.

With `CC(=O)Oc1ccc2oc(=O)cc(C)c2c1`, the GI50 is inactive: > 10 µM.

As for `FC(F)(F)c1ccc(/C=N/C23CC4CC(CC(C4)C2)C3)cc1`, the GI50 was inactive: > 100 µM.

In the case of `CC(Oc1ccc(OCC2CCCCC2)cc1)C(=O)OCC(=O)c1ccc(-c2ccccc2)cc1` (stereo not drawn), the GI50 was inactive: > 100 µM.

As for `COC(=O)c1c2c(c(-c3ccccc3)c3c1-c1nc(Cl)ccc1CC3)CCc1ccc(Cl)nc1-2`, the GI50 is inactive: > 100 µM.

For the molecule `COC(=O)C1=C(c2ccc3c(c2)OCO3)OC(c2ccc3c(c2)OCO3)C1` (stereo not drawn), the GI50 was inactive: > 100 µM.

For `COC(=O)/C=C/c1ccc2c(c1)CC1(Cc3ccccc3C1)C2`, the GI50 was inactive: > 100 µM.

As for `Cc1nnc(N/N=C2\C(=O)Nc3ccccc32)n1N`, the GI50 was inactive: > 100 µM.

In the case of `O=C(CC1Sc2ccccc2NC1=O)Nc1cc(Cl)ccc1Cl` (stereo not drawn), the GI50 is inactive: > 100 µM.

As to `COc1cc(-c2ccc(NC(=O)SCCC(=O)O)cc2OC)ccc1NC(=O)SCCC(=O)O`, the GI50 is inactive: > 100 µM.

For the molecule `COc1cccc(C23CCCC(C2)N(C)CC3OC(=O)c2ccccc2)c1OC` (stereo not drawn), the GI50 was inactive: 21 µM.

Turning to `CSC1SCC2C(=O)N(C)C(C(C)C)C(=O)OCC(NC(=O)c3cnc4ccccc4n3)C(=O)NC(C)C(=O)N(C)C1C(=O)N(C)C(C(C)C)C(=O)OCC(NC(=O)c1cnc3ccccc3n1)C(=O)NC(C)C(=O)N2C` (stereo not drawn), the GI50 is active: 0.0075 µM.

Turning to `[N-]=[N+]=NC(CCl)c1cn([C@H]2C[C@H](O)[C@@H](CO)O2)c(=O)[nH]c1=O` (stereo partly drawn), the GI50 was inactive: > 100 µM.

`CCC1(O)C(=O)OCc2c1cc1n(c2=O)Cc2cc3cc(N)ccc3nc2-1` (stereo not drawn): the GI50 was active: 0.108 µM.

Take `O=C1/C(=C/c2ccccc2Cl)COc2ccccc21`: the GI50 is inactive: 18.9 µM.

As to `COc1ccccc1/C=C1\CCC(CCN(C)C)(C2=CCCC2)C1=O` (stereo not drawn), the GI50 is inactive: 18.9 µM.
